# The list shows a part of the results.
# What was measured:
# Experiment in all cases: glycan array binding signal (z-score within array); higher = stronger binding
# Settings in all cases: glycan notation: IUPAC condensed, linker removed
# [1] = biological target: Gal(b1-4)GlcNAc(b1-3)Gal(b1-4)GlcNAc(b1-6)[Gal(b1-3)]GalNAc
# Summary of the method: (§1)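 The Consortium for Functional Glycomics database supplied 3228 glycan arrays, of which those lacking an available protein sequence were dropped. The binding signal, a within-array Z-score, was averaged across arrays of the same protein sequence and across linkers. Negative scores can be read as non-binding.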
# [2] = biological target: Gal(b1-4)GlcNAc(b1-3)Gal(b1-4)[Fuc(a1-3)]GlcNAc(b1-3)Gal(b1-4)[Fuc(a1-3)]GlcNAc
# Summary of the method: as §1
# [3] = biological target: Gal(b1-4)GlcNAc(b1-3)GalNAc
# Summary of the method: as §1
# [4] = biological target: Gal(b1-4)GlcNAc(b1-3)[Fuc(a1-3)GlcNAc(b1-6)]Gal(b1-4)Glc
# Summary of the method: as §1
# [5] = biological target: Gal(b1-4)GlcNAc(b1-3)[Gal(b1-4)GlcNAc(b1-6)]Gal(b1-4)GlcNAc
# Summary of the method: as §1
# [6] = biological target: Gal(b1-4)GlcNAc(b1-3)[GlcNAc(b1-6)]Gal(b1-4)GlcNAc
# Summary of the method: as §1
# [7] = biological target: Gal(b1-4)GlcNAc(b1-6)Gal(b1-4)GlcNAc
# Summary of the method: as §1
# [8] = biological target: Gal(b1-4)GlcNAc(b1-6)GalNAc
# Summary of the method: as §1
# [9] = biological target: Gal(b1-4)GlcNAc(b1-6)[Gal(b1-3)]GalNAc
# Summary of the method: as §1
# [10] = biological target: Gal(b1-4)GlcNAc(b1-6)[Gal(b1-4)GlcNAc(b1-3)]GalNAc
# Summary of the method: as §1
# Gal(b1-4)GlcNAc6P = biological target: Gal(b1-4)GlcNAc6P
# Summary of the method: as §1
# Gal(b1-6)Gal = biological target: Gal(b1-6)Gal
# Summary of the method: as §1
# Gal3S(b1-3)GalNAc = biological target: Gal3S(b1-3)GalNAc
# Summary of the method: as §1
# Gal3S(b1-3)GlcNAc = biological target: Gal3S(b1-3)GlcNAc
# Summary of the method: as §1
# [11] = biological target: Gal3S(b1-3)[Fuc(a1-4)]GlcNAc
# Summary of the method: as §1
# Gal3S(b1-4)Glc = biological target: Gal3S(b1-4)Glc
# Summary of the method: as §1
# Gal3S(b1-4)Glc6S = biological target: Gal3S(b1-4)Glc6S
# Summary of the method: as §1
# Gal3S(b1-4)GlcNAc = biological target: Gal3S(b1-4)GlcNAc
# Summary of the method: as §1
# [12] = biological target: Gal3S(b1-4)[Fuc(a1-3)]Glc6S
# Summary of the method: as §1
# [13] = biological target: Gal3S(b1-4)[Fuc(a1-3)]GlcNAc
# Summary of the method: as §1
# [14] = biological target: Gal3S(b1-4)[Fuc(a1-3)]GlcNAc6S
# Summary of the method: as §1
# Gal3S4S(b1-4)GlcNAc = biological target: Gal3S4S(b1-4)GlcNAc
# Summary of the method: as §1
# Gal3S6S(b1-4)GlcNAc = biological target: Gal3S6S(b1-4)GlcNAc
# Summary of the method: as §1
# Gal3S6S(b1-4)GlcNAc6S = biological target: Gal3S6S(b1-4)GlcNAc6S
# Summary of the method: as §1
# Gal4S(b1-4)GlcNAc = biological target: Gal4S(b1-4)GlcNAc
# Summary of the method: as §1
# Gal4S6S(b1-4)GlcNAc = biological target: Gal4S6S(b1-4)GlcNAc
# Summary of the method: as §1
# Gal6P(b1-4)GlcNAc = biological target: Gal6P(b1-4)GlcNAc
# Summary of the method: as §1
# Gal6S(b1-3)GlcNAc = biological target: Gal6S(b1-3)GlcNAc
# Summary of the method: as §1
# Gal6S(b1-3)GlcNAc6S = biological target: Gal6S(b1-3)GlcNAc6S
# Summary of the method: as §1
# Gal6S(b1-4)Glc = biological target: Gal6S(b1-4)Glc
# Summary of the method: as §1
# Gal6S(b1-4)Glc6S = biological target: Gal6S(b1-4)Glc6S
# Summary of the method: as §1
# Gal6S(b1-4)GlcNAc = biological target: Gal6S(b1-4)GlcNAc
# Summary of the method: as §1
# Gal6S(b1-4)GlcNAc6S = biological target: Gal6S(b1-4)GlcNAc6S
# Summary of the method: as §1
# GalNAc(a1-3)Gal = biological target: GalNAc(a1-3)Gal
# Summary of the method: as §1
# GalNAc(a1-3)GalNAc = biological target: GalNAc(a1-3)GalNAc
# Summary of the method: as §1
# [15] = biological target: GalNAc(a1-3)GalNAc(b1-3)Gal(a1-4)Gal(b1-4)Glc
# Summary of the method: as §1
# [16] = biological target: GalNAc(a1-3)GalNAc(b1-3)Gal(a1-4)Gal(b1-4)GlcNAc
# Summary of the method: as §1
# GalNAc(b1-3)Gal = biological target: GalNAc(b1-3)Gal
# Summary of the method: as §1
# [17] = biological target: GalNAc(b1-3)Gal(a1-4)Gal(b1-4)GlcNAc
# Summary of the method: as §1
# [18] = biological target: GalNAc(b1-3)Gal(a1-4)Gal(b1-4)GlcNAc(b1-3)Gal(b1-4)Glc
# Summary of the method: as §1
# [19] = biological target: GalNAc(b1-3)Gal(a1-6)Gal(b1-4)Glc
# Summary of the method: as §1
# GalNAc(b1-3)GalNAc = biological target: GalNAc(b1-3)GalNAc
# Summary of the method: as §1
# GalNAc(b1-3)GlcNAc = biological target: GalNAc(b1-3)GlcNAc
# Summary of the method: as §1
# GalNAc(b1-4)Gal(b1-4)Glc = biological target: GalNAc(b1-4)Gal(b1-4)Glc
# Summary of the method: as §1
# GalNAc(b1-4)GlcNAc = biological target: GalNAc(b1-4)GlcNAc
# Summary of the method: as §1
binder,measurement,setting,value
HPL (Tachypleus tridentatus) (protein) MEDDCTCVTDRSLEGKLMKHPSTPAVYQILDGCRRLVPNPPTYNNIYKNWECIQSNILEKLLCKCDSLSNGAELIKGSGDTVYLLSNGVKRPIADPETFNGFCFDWNKIKTYSDIVINSLSTGPIIIIKHHHHHH,glycan array binding signal (z-score),[1],0.388
same,glycan array binding signal (z-score),[2],-0.174
same,glycan array binding signal (z-score),[3],-0.245
same,glycan array binding signal (z-score),[4],-0.376
same,glycan array binding signal (z-score),[5],-0.277
same,glycan array binding signal (z-score),[6],0.962
same,glycan array binding signal (z-score),[7],-0.232
same,glycan array binding signal (z-score),[8],-0.074
same,glycan array binding signal (z-score),[9],-0.066
same,glycan array binding signal (z-score),[10],-0.188
same,glycan array binding signal (z-score),Gal(b1-4)GlcNAc6P,-0.16
same,glycan array binding signal (z-score),Gal(b1-6)Gal,-0.048
same,glycan array binding signal (z-score),Gal3S(b1-3)GalNAc,-0.22
same,glycan array binding signal (z-score),Gal3S(b1-3)GlcNAc,-0.3
same,glycan array binding signal (z-score),[11],-0.123
same,glycan array binding signal (z-score),Gal3S(b1-4)Glc,-0.001
same,glycan array binding signal (z-score),Gal3S(b1-4)Glc6S,-0.156
same,glycan array binding signal (z-score),Gal3S(b1-4)GlcNAc,-0.263
same,glycan array binding signal (z-score),[12],-0.177
same,glycan array binding signal (z-score),[13],-0.435
same,glycan array binding signal (z-score),[14],-0.32
same,glycan array binding signal (z-score),Gal3S4S(b1-4)GlcNAc,-0.38
same,glycan array binding signal (z-score),Gal3S6S(b1-4)GlcNAc,-0.269
same,glycan array binding signal (z-score),Gal3S6S(b1-4)GlcNAc6S,-0.361
same,glycan array binding signal (z-score),Gal4S(b1-4)GlcNAc,-0.337
same,glycan array binding signal (z-score),Gal4S6S(b1-4)GlcNAc,-0.388
same,glycan array binding signal (z-score),Gal6P(b1-4)GlcNAc,-0.049
same,glycan array binding signal (z-score),Gal6S(b1-3)GlcNAc,-0.073
same,glycan array binding signal (z-score),Gal6S(b1-3)GlcNAc6S,-0.271
same,glycan array binding signal (z-score),Gal6S(b1-4)Glc,0.021
same,glycan array binding signal (z-score),Gal6S(b1-4)Glc6S,-0.101
same,glycan array binding signal (z-score),Gal6S(b1-4)GlcNAc,-0.335
same,glycan array binding signal (z-score),Gal6S(b1-4)GlcNAc6S,-0.426
same,glycan array binding signal (z-score),GalNAc(a1-3)Gal,-0.416
same,glycan array binding signal (z-score),GalNAc(a1-3)GalNAc,-0.454
same,glycan array binding signal (z-score),[15],-0.412
same,glycan array binding signal (z-score),[16],-0.325
same,glycan array binding signal (z-score),GalNAc(b1-3)Gal,-0.195
same,glycan array binding signal (z-score),[17],-0.223
same,glycan array binding signal (z-score),[18],-0.261
same,glycan array binding signal (z-score),[19],-0.402
same,glycan array binding signal (z-score),GalNAc(b1-3)GalNAc,-0.385
same,glycan array binding signal (z-score),GalNAc(b1-3)GlcNAc,-0.192
same,glycan array binding signal (z-score),GalNAc(b1-4)Gal(b1-4)Glc,1
same,glycan array binding signal (z-score),GalNAc(b1-4)GlcNAc,-0.208

# Source: the supplement of paper PMC8728848
